According to the supplement of paper PMC8728848:
Some of the results follow.

How the values were obtained:
Experiment in all cases: glycan array binding signal (z-score within array); higher = stronger binding
Settings in all cases: glycan notation: IUPAC condensed, linker removed
[1] = biological target: Gal(b1-3)GlcNAc(b1-2)Man(a1-3)[Gal(b1-3)GlcNAc(b1-2)Man(a1-6)]Man(b1-4)GlcNAc(b1-4)[Fuc(a1-6)]GlcNAc
Summary of the method: (§1)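 Negative Z-scores can be read as non-binding. The Z-score is calculated within each array and then averaged across arrays of one protein sequence at different concentrations or buffers and across linkers. Arrays, 3228 in all, were curated from the Consortium for Functional Glycomics database and kept only where the protein sequence was available.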

[2] = biological target: Gal(b1-3)GlcNAc(b1-2)Man(a1-3)[GlcNAc(b1-4)][Gal(b1-3)GlcNAc(b1-2)Man(a1-6)]Man(b1-4)GlcNAc(b1-4)GlcNAc
Summary of the method: as §1

[3] = biological target: Gal(b1-3)GlcNAc(b1-2)[Gal(b1-3)GlcNAc(b1-6)]Man(a1-6)[Gal(b1-3)GlcNAc(b1-2)Man(a1-3)]Man(b1-4)GlcNAc(b1-4)GlcNAc
Summary of the method: as §1

[4] = biological target: Gal(b1-3)GlcNAc(b1-3)Gal(b1-3)GlcNAc
Summary of the method: as §1

[5] = biological target: Gal(b1-3)GlcNAc(b1-3)Gal(b1-4)Glc
Summary of the method: as §1

[6] = biological target: Gal(b1-3)GlcNAc(b1-3)Gal(b1-4)GlcNAc
Summary of the method: as §1

[7] = biological target: Gal(b1-3)GlcNAc(b1-3)Gal(b1-4)GlcNAc(b1-2)Man(a1-3)[Gal(b1-3)GlcNAc(b1-3)Gal(b1-4)GlcNAc(b1-2)Man(a1-6)]Man(b1-4)GlcNAc(b1-4)GlcNAc
Summary of the method: as §1

[8] = biological target: Gal(b1-3)GlcNAc(b1-3)Gal(b1-4)GlcNAc(b1-2)[Gal(b1-3)GlcNAc(b1-3)Gal(b1-4)GlcNAc(b1-6)]Man(a1-6)[Gal(b1-3)GlcNAc(b1-3)Gal(b1-4)GlcNAc(b1-2)Man(a1-3)]Man(b1-4)GlcNAc(b1-4)[Fuc(a1-6)]GlcNAc
Summary of the method: as §1

[9] = biological target: Gal(b1-3)GlcNAc(b1-3)Gal(b1-4)GlcNAc(b1-3)Gal(b1-4)GlcNAc(b1-2)[Gal(b1-3)GlcNAc(b1-3)Gal(b1-4)GlcNAc(b1-3)Gal(b1-4)GlcNAc(b1-6)]Man(a1-6)[Gal(b1-3)GlcNAc(b1-3)Gal(b1-4)GlcNAc(b1-3)Gal(b1-4)GlcNAc(b1-2)Man(a1-3)]Man(b1-4)GlcNAc(b1-4)[Fuc(a1-6)]GlcNAc
Summary of the method: as §1

[10] = biological target: Gal(b1-3)GlcNAc(b1-3)Gal(b1-4)GlcNAc(b1-6)[Gal(b1-3)GlcNAc(b1-3)]Gal(b1-4)Glc
Summary of the method: as §1

[11] = biological target: Gal(b1-3)GlcNAc(b1-3)Gal(b1-4)[Fuc(a1-3)]GlcNAc
Summary of the method: as §1

[12] = biological target: Gal(b1-3)GlcNAc(b1-3)Gal(b1-4)[Fuc(a1-3)]GlcNAc(b1-6)[Gal(b1-3)GlcNAc(b1-3)]Gal(b1-4)Glc
Summary of the method: as §1

[13] = biological target: Gal(b1-3)GlcNAc(b1-3)GalNAc
Summary of the method: as §1

[14] = biological target: Gal(b1-3)GlcNAc(b1-6)Gal(b1-4)GlcNAc
Summary of the method: as §1

[15] = biological target: Gal(b1-3)GlcNAc(b1-6)GalNAc
Summary of the method: as §1

[16] = biological target: Gal(b1-3)GlcNAc(b1-6)[Gal(b1-3)]GalNAc
Summary of the method: as §1

Gal(b1-3)GlcNAc6S = biological target: Gal(b1-3)GlcNAc6S
Summary of the method: as §1

[17] = biological target: Gal(b1-3)[Fuc(a1-4)]GlcNAc
Summary of the method: as §1

[18] = biological target: Gal(b1-3)[Fuc(a1-4)]GlcNAc(b1-2)Man
Summary of the method: as §1

[19] = biological target: Gal(b1-3)[Fuc(a1-4)]GlcNAc(b1-2)Man(a1-3)[Gal(b1-3)[Fuc(a1-4)]GlcNAc(b1-2)Man(a1-6)]Man(b1-4)GlcNAc(b1-4)[Fuc(a1-6)]GlcNAc
Summary of the method: as §1

[20] = biological target: Gal(b1-3)[Fuc(a1-4)]GlcNAc(b1-3)Gal(b1-3)[Fuc(a1-4)]GlcNAc
Summary of the method: as §1

[21] = biological target: Gal(b1-3)[Fuc(a1-4)]GlcNAc(b1-3)Gal(b1-4)[Fuc(a1-3)]GlcNAc
Summary of the method: as §1

[22] = biological target: Gal(b1-3)[Fuc(a1-4)]GlcNAc(b1-6)GalNAc
Summary of the method: as §1

[23] = biological target: Gal(b1-3)[GlcNAc(b1-6)]GalNAc
Summary of the method: as §1

[24] = biological target: Gal(b1-3)[Neu5Ac(a2-6)]GalNAc
Summary of the method: as §1

[25] = biological target: Gal(b1-3)[Neu5Ac(a2-6)]GlcNAc(b1-4)Gal(b1-4)Glc
Summary of the method: as §1

[26] = biological target: Gal(b1-3)[Neu5Ac(b2-6)]GalNAc
Summary of the method: as §1

Gal(b1-4)Gal = biological target: Gal(b1-4)Gal
Summary of the method: as §1

[27] = biological target: Gal(b1-4)GalNAc(a1-3)[Fuc(a1-2)]Gal(b1-4)GlcNAc
Summary of the method: as §1

[28] = biological target: Gal(b1-4)GalNAc(b1-3)[Fuc(a1-2)]Gal(b1-4)GlcNAc
Summary of the method: as §1

Gal(b1-4)Glc = biological target: Gal(b1-4)Glc
Summary of the method: as §1

Gal(b1-4)Glc6S = biological target: Gal(b1-4)Glc6S
Summary of the method: as §1

Gal(b1-4)GlcNAc = biological target: Gal(b1-4)GlcNAc
Summary of the method: as §1

[29] = biological target: Gal(b1-4)GlcNAc(a1-6)Gal(b1-4)GlcNAc
Summary of the method: as §1

Gal(b1-4)GlcNAc(b1-2)Man = biological target: Gal(b1-4)GlcNAc(b1-2)Man
Summary of the method: as §1

[30] = biological target: Gal(b1-4)GlcNAc(b1-2)Man(a1-3)Man(b1-4)GlcNAc(b1-4)GlcNAc
Summary of the method: as §1

[31] = biological target: Gal(b1-4)GlcNAc(b1-2)Man(a1-3)[Gal(b1-4)GlcNAc(b1-2)Man(a1-6)]Man(b1-4)GlcNAc(b1-4)GlcNAc
Summary of the method: as §1

[32] = biological target: Gal(b1-4)GlcNAc(b1-2)Man(a1-3)[Gal(b1-4)GlcNAc(b1-2)Man(a1-6)]Man(b1-4)GlcNAc(b1-4)[Fuc(a1-6)]GlcNAc
Summary of the method: as §1

[33] = biological target: Gal(b1-4)GlcNAc(b1-2)Man(a1-3)[Gal(b1-4)GlcNAc(b1-2)Man(a1-6)][Gal(b1-4)GlcNAc(b1-4)]Man(b1-4)GlcNAc(b1-4)[Fuc(a1-6)]GlcNAc
Summary of the method: as §1

[34] = biological target: Gal(b1-4)GlcNAc(b1-2)Man(a1-3)[Gal(b1-4)GlcNAc(b1-2)Man(a1-6)][GlcNAc(b1-4)]Man(b1-4)GlcNAc(b1-4)[Fuc(a1-6)]GlcNAc
Summary of the method: as §1

[35] = biological target: Gal(b1-4)GlcNAc(b1-2)Man(a1-3)[GlcNAc(b1-2)Man(a1-6)]Man(b1-4)GlcNAc(b1-4)GlcNAc
Summary of the method: as §1

[36] = biological target: Gal(b1-4)GlcNAc(b1-2)Man(a1-3)[GlcNAc(b1-4)][Gal(b1-4)GlcNAc(b1-2)Man(a1-6)]Man(b1-4)GlcNAc(b1-4)GlcNAc
Summary of the method: as §1

[37] = biological target: Gal(b1-4)GlcNAc(b1-2)Man(a1-3)[Man(a1-6)]Man(b1-4)GlcNAc(b1-4)GlcNAc
Summary of the method: as §1

[38] = biological target: Gal(b1-4)GlcNAc(b1-2)Man(a1-6)Man(b1-4)GlcNAc(b1-4)GlcNAc
Summary of the method: as §1

[39] = biological target: Gal(b1-4)GlcNAc(b1-2)Man(a1-6)[GlcNAc(b1-2)Man(a1-3)]Man(b1-4)GlcNAc(b1-4)GlcNAc
Summary of the method: as §1

B1: PLU (Photorhabdus luminiscence) (protein)
chain: HHHHHHENLYFQSSIVFASIDPRSNPLQTSSQNYVDIPGLKLDVSKYSNSPCLTALITLNIPTPYASGNNFPGGNFAIVTDQGEQLAYGGFTYSSKIPENSGRMPFTLVARYSLASNVSTIKAQWSNIRGSTVHIDSYASISAVIQCNQLV
Q: B1 was tested. Which “glycan array binding signal (z-score)” value [1] did it give?
A: 0.019

Q: And the “glycan array binding signal (z-score)” value [2]?
A: -0.165

Q: What about the “glycan array binding signal (z-score)” value [3] of the same binder?
A: -0.274

Q: What about the “glycan array binding signal (z-score)” value [4] of the same binder?
A: -0.317

Q: And the “glycan array binding signal (z-score)” value [5]?
A: -0.267

Q: And the “glycan array binding signal (z-score)” value [6]?
A: -0.269

Q: And the “glycan array binding signal (z-score)” value [7]?
A: -0.108

Q: What about the “glycan array binding signal (z-score)” value [8] of the same binder?
A: -0.286

Q: And the “glycan array binding signal (z-score)” value [9]?
A: -0.083

Q: What about the “glycan array binding signal (z-score)” value [10] of the same binder?
A: -0.246

Q: And the “glycan array binding signal (z-score)” value [11]?
A: -0.214

Q: And the “glycan array binding signal (z-score)” value [12]?
A: -0.312

Q: And the “glycan array binding signal (z-score)” value [13]?
A: -0.311

Q: What about the “glycan array binding signal (z-score)” value [14] of the same binder?
A: -0.216

Q: And the “glycan array binding signal (z-score)” value [15]?
A: -0.235

Q: And the “glycan array binding signal (z-score)” value [16]?
A: -0.254

Q: And the “glycan array binding signal (z-score)” value (Gal(b1-3)GlcNAc6S)?
A: -0.213

Q: What about the “glycan array binding signal (z-score)” value [17] of the same binder?
A: -0.29

Q: And the “glycan array binding signal (z-score)” value [18]?
A: -0.209

Q: What about the “glycan array binding signal (z-score)” value [19] of the same binder?
A: -0.285

Q: What about the “glycan array binding signal (z-score)” value [20] of the same binder?
A: -0.323

Q: And the “glycan array binding signal (z-score)” value [21]?
A: -0.128

Q: What about the “glycan array binding signal (z-score)” value [22] of the same binder?
A: -0.185

Q: And the “glycan array binding signal (z-score)” value [23]?
A: -0.284

Q: And the “glycan array binding signal (z-score)” value [24]?
A: -0.319

Q: And the “glycan array binding signal (z-score)” value [25]?
A: -0.229

Q: And the “glycan array binding signal (z-score)” value [26]?
A: -0.298

Q: And the “glycan array binding signal (z-score)” value (Gal(b1-4)Gal)?
A: -0.25

Q: And the “glycan array binding signal (z-score)” value [27]?
A: -0.299

Q: What about the “glycan array binding signal (z-score)” value [28] of the same binder?
A: -0.357

Q: And the “glycan array binding signal (z-score)” value (Gal(b1-4)Glc)?
A: -0.354

Q: And the “glycan array binding signal (z-score)” value (Gal(b1-4)Glc6S)?
A: -0.211

Q: What about the “glycan array binding signal (z-score)” value (Gal(b1-4)GlcNAc) of the same binder?
A: -0.337

Q: And the “glycan array binding signal (z-score)” value [29]?
A: -0.314

Q: What about the “glycan array binding signal (z-score)” value (Gal(b1-4)GlcNAc(b1-2)Man) of the same binder?
A: -0.321

Q: And the “glycan array binding signal (z-score)” value [30]?
A: -0.227

Q: And the “glycan array binding signal (z-score)” value [31]?
A: -0.246

Q: What about the “glycan array binding signal (z-score)” value [32] of the same binder?
A: -0.246

Q: What about the “glycan array binding signal (z-score)” value [33] of the same binder?
A: -0.357

Q: What about the “glycan array binding signal (z-score)” value [34] of the same binder?
A: -0.291

Q: What about the “glycan array binding signal (z-score)” value [35] of the same binder?
A: -0.262

Q: What about the “glycan array binding signal (z-score)” value [36] of the same binder?
A: -0.281

Q: What about the “glycan array binding signal (z-score)” value [37] of the same binder?
A: -0.351

Q: What about the “glycan array binding signal (z-score)” value [38] of the same binder?
A: -0.333

Q: What about the “glycan array binding signal (z-score)” value [39] of the same binder?
A: -0.232
